According to PubChem BioAssay (NCATS):
Several values for one entry are separate records, joined by “and”; a condition that tells them apart may be missing. Equal entries are not always repeated. Some of the results follow. Further columns of the screen follow, without active or inactive calls. The list favours compounds with an active or inconclusive main result. Potencies come from curve fits of mixed quality, noted in brackets. Square brackets hold non-standard residues; d marks the D form. Peptide text beside a SMILES is read from it.

Experiment: qHTS Assay for Lipid Storage Modulators (AID 1519)
Details: Drosophila S3 cells, BODIPY lipid droplet/cell ratio, laser cytometry, cells loaded with oleic acid
Outline: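 Cells seeded at 5,000 per well were treated with compounds over a concentration series and loaded with oleic acid (400 uM, as added). Lipid droplet fluorescence (488 nm excitation, 500-530 nm channel) was read by laser-scanning cytometry and normalized to 20 uM Triacsin C.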

[1] = measured here: cell count channel max response
[2] = measured here: cell number channel AC50
[3] = measured here: lipid (BODIPY) channel AC50
[4] = measured here: lipid channel max response
Tags describe the fitted curve by direction and shape.

| SMILES | max response [1] | AC50 [2] | AC50 [3] | max response [4] |
| --- | --- | --- | --- | --- |
| CN(C)c1ccc(-c2cncnc2NCCc2cnc[nH]2)cc1 | 35.6% | 0.708 µM [rising, full curve] | 0.631 µM [rising, full curve] | 41.8% |
| O=C(c1csnn1)N1CCC2(CCCN(c3ccc(-c4ccccc4)cc3)C2)CC1 | 27.6% | 1.78 µM [rising, full curve, poor fit] | 2.51 µM [rising, partial curve] | 6.8% |
| CN(C)c1ccc(-c2cncnc2Nc2ccc(F)cc2)cc1 | 30.9% | 1.26 µM [rising, full curve, poor fit] | 1 µM [rising, full curve] | 36.8% |
| COCCn1c(=O)c(-c2ccc(OC)cc2)nc2cnc(Oc3ccccc3)nc21 | 3.95% | 4.47 µM [rising, partial curve] | 4.47 µM [rising, partial curve] | 3.83% |
| COCCn1c(=O)c(CCc2ccccc2)nc2cnc(Oc3cccc(Cl)c3)nc21 | 20.1% | 3.55 µM [rising, partial curve] | 2.24 µM [rising, partial curve] | 28.5% |
| CSCC[C@H](C=O)NC(=O)[C@H](CC(C)C)NC(=O)[C@H](CC(C)C)NC(C)=O (Ac-Leu-Leu-[dM]-aldehyde) | 43.9% | 5.62 µM [rising, full curve, poor fit] | 14.1 µM [rising, single point] | 47.8% |
| COc1cc(Cc2cnc(N)nc2N)cc(OC)c1OC | 42.4% and 25.5% and 46.6% | 0.708 µM [rising, full curve, poor fit] | 20 µM [rising, partial curve, poor fit] | 37.4% and 37.1% and 43.3% |
| COc1ccc(C(=O)N2CCC3(CC2)CN(c2ccccc2)C3)cc1 | 31.8% | 0.00562 µM [rising, full curve, poor fit] | 1.12 µM [rising, partial curve, poor fit] | 40.4% |
| COc1ccc(-n2c(=O)c(-c3cccc(Cl)c3)nc3cncnc32)cc1 | 45.5% | 0.178 µM [rising, full curve] | 0.112 µM [rising, full curve] | 50.6% |
| C=C1CCC(O)C/C1=C\C=C1/CCCC2(C)C1CCC2C(C)/C=C/C(C)C(C)C (stereo unspecified) | 69% | 35.5 µM [rising, partial curve, poor fit] | 35.5 µM [rising, partial curve, poor fit] | 81.4% |
| O=C(c1cccc(F)c1)N1CCC2(CCCN(Cc3cc(C(F)(F)F)cc(C(F)(F)F)c3)C2)CC1 | 20.2% | 2.51 µM [rising, partial curve, poor fit] | 0.316 µM [rising, partial curve] | 4.92% |
| COc1ncc2nc(-c3ccccc3)c(=O)n(CCc3ccccc3)c2n1 | 15.6% | 0.141 µM [rising, full curve, poor fit] | 0.126 µM [rising, full curve, poor fit] | 16.2% |
| CCCCC#Cc1nc(NC)c2ncn([C@@H]3O[C@@H](CO)[C@H](O)[C@H]3O)c2n1 | 46.5% | 14.1 µM [rising, partial curve, poor fit] | 25.1 µM [rising, partial curve, poor fit] | 63.2% |
| CN(CCc1ccc(Cl)c(Cl)c1)C[C@@H](O)COc1ccc(NS(C)(=O)=O)cc1 | 62.2% | 14.1 µM [rising, partial curve, poor fit] | 15.8 µM [rising, partial curve, poor fit] | 77.7% |
| COc1ccc2[nH]cc(CCNc3nc(-c4c(C)noc4C)nc4ccccc34)c2c1 | 16.9% | 0.112 µM [rising, partial curve, poor fit] | 0.178 µM [rising, partial curve, poor fit] | 25.6% |
| O=c1c(-c2ccc(Cl)cc2)nc2cncnc2n1Cc1ccccc1Cl | 10.4% | 2.82 µM [rising, partial curve] | 4.47 µM [rising, partial curve] | 16.3% |
| CN(C)C(=O)c1ccc(-c2ccc3ncnc(N4CCNCC4)c3c2)cc1 | 32.6% | 14.1 µM [rising, partial curve] | 14.1 µM [rising, partial curve, poor fit] | 35.4% |
| CC[C@H](C)N(C)C(=O)c1cc2ccccc2c(-c2ccccc2Cl)n1 | 49.2% | 12.6 µM [rising, partial curve, poor fit] | 12.6 µM [rising, partial curve, poor fit] | 59.4% |
| CCN(CC)CCOC(=O)c1cc(Cl)c(N)cc1OC | 52.3% | 35.5 µM [rising, partial curve, poor fit] | 35.5 µM [rising, partial curve, poor fit] | 55.1% |
| COCCn1c(=O)c(-c2ccccc2)nc2cnc(Oc3cccc(Cl)c3)nc21 | 21.3% | 5.62 µM [rising, partial curve, poor fit] | 0.355 µM [rising, partial curve, poor fit] | 19.7% |
| CCCCCCN(CCCCCC)C(=O)Cc1c(-c2ccc(Cl)cc2)[nH]c2ccc(Cl)cc12 | 83.7% | 12.6 µM [rising, partial curve] | 12.6 µM [rising, partial curve] | 115% |
| CN(C)c1ncc2nc(-c3cccs3)c(=O)n(CCc3ccccc3)c2n1 | 33.5% | 0.631 µM [rising, full curve, poor fit] | 0.562 µM [rising, full curve] | 43.9% |
| Cc1c(-c2ccc(Cl)cc2)noc1C1CCN(CCc2ccccc2)CC1 | 51.5% | 5.01 µM [rising, full curve, poor fit] | 6.31 µM [rising, full curve, poor fit] | 55.2% |
| c1cn(-c2ccnc(-c3ccc4c(c3)OCO4)n2)cn1 | 29.6% | 0.141 µM [rising, full curve] | 0.141 µM [rising, full curve] | 33.7% |
